Test results: PubChem BioAssay AID662 (National Center for Advancing Translational Sciences (NCATS), 2007)
The campaign covered roughly 71,000 compounds. About 1,800 (2.5%) were called active. Inconclusive results, whose numbers are uncertain, are shown with a selection of clear calls. The call rests on the fitted dose curve; in most records, active means well fitted activation curve with a large enough effect in the signal ratio, with a control signal flat (not every such curve was filed as active); inconclusive means small, poorly fitted or top-dose-only effect, or effect the other way, or a change in a side signal; inactive means flat fitted curve, though single readings scatter; the % refers to the signal ratio. Potencies of inconclusive entries are doubtful fits and often do not repeat.

experiment: Cell signaling CRE-BLA (Fsk stim); conditions: CHO CRE-bla reporter (cAMP response element driving beta-lactamase), forskolin EC10, beta-lactamase ratio; activity change, negative = inhibition: at 38.2 µM (top of the series) unless noted; on activity change, negative = inhibition: % of control where 0% means no effect
How it was run: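 Reporter-gene assay: CHO cells with beta-lactamase behind cAMP responsive elements, co-treated with compound and EC10 NKH 477 for 3 hours at 37 degrees Celsius. Activity came from the 460/530 nm CCF4 emission ratio.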
Potency means the concentration at half of the fitted maximal effect; tags describe the fitted curve by direction and shape.

SMILES | activity change, negative = inhibition | Potency
O=C(CSc1ncc(-c2ccc(F)cc2)n1Cc1ccco1)Nc1nccs1 | inconclusive: 28.2% | 
CCN1CCC2(CC1)C(C#N)=C(N)Oc1c2sc2nc(C)cc(C)c12 |  | inconclusive: 10 µM [rising, single point]
Cc1ccc(C2=C(Cl)C(=O)C(c3ccc(C)cc3)=C(Cl)C2=O)cc1 | inactive: 12.1% [at 7.6 µM] | 
CN1CCN(c2nc(-c3ccncc3)nc3ccccc23)CC1 |  | inconclusive: 10 µM [rising, partial curve]
CC1(C)CC(=O)C(C(c2ccncc2)C2C(=O)CC(C)(C)CC2=O)C(=O)C1 | inconclusive: -9.31% | 
Cc1onc(-c2ccccc2)c1C(=O)N1CCCSC1=Nc1ccccc1 | inactive: -7.71% | 
O=C(NCc1ccc2c(c1)OCO2)C1CCCN1C(=O)Nc1cccc(Cl)c1 (configuration not stated) | inactive: -6.24% | 
Cn1c(=O)c(CCc2ccccc2)nc2cnc(OCc3ccccc3)nc21 | inactive: -0.0877% | 
Cn1c(=O)[nH]c(=O)c2c1nc(CN1CCN(c3cccc(Cl)c3)CC1)n2CCCc1ccccc1 |  | active: 7.94 µM
COc1ccc(C(=O)Cn2c(Br)nc3c2c(=O)n(C)c(=O)n3C)cc1 |  | inconclusive: 5.01 µM [falling, single point]
O=C(NCCCN1CCCC1=O)c1ccc2c(c1)NC(=O)C(N1CCOCC1)S2 (configuration not stated) | inconclusive: -14.7% | 
COCC(C)n1c(C)cc(C(=O)CSc2nc3ccccc3c(=O)[nH]2)c1C (configuration not stated) |  | inconclusive: 5.01 µM [rising, partial curve]
COc1cc(C(=O)OCC(=O)c2cc(C)n(C)c2C)cc(NC(=O)c2ccco2)c1OC |  | active: 3.16 µM
CCCCOCCOCCSC#N | inactive: -10.3% | 
CCc1ccc(N2CSC3=C(C#N)C(c4cccs4)CC(=O)N3C2)cc1 (configuration not stated) | inactive: 0.704% | 
Oc1ccc(Br)cc1-c1nc2cnccn2c1NC1CCCC1 |  | inconclusive: 15.8 µM [falling, single point]
COc1ccc(-c2noc(C3CCCN(C(=O)c4ccccc4OC)C3)n2)cc1OC (configuration not stated) | inactive: 8.82% | 
COc1ccc2[nH]c3nc(SCc4nnc(-c5ccc(C)cc5)o4)nnc3c2c1 |  | active: 1 µM
Cc1ccc(CNC(=O)CN2CCN(Cc3ccc(C)cc3)C2=O)cc1 | inconclusive: -16% | 
CCCS(=O)(=O)c1nnnn1-c1cccc(OC)c1 |  | inconclusive: 20 µM [rising, single point]
CCC/C=C(\CCC)C(NC(=O)c1ccc(C(F)(F)F)cc1)c1ccc(C(F)(F)F)cc1 (configuration not stated) | inconclusive: 24% | 
CCCCCCC=O | inactive: 10.4% | 

SMILES | activity change, negative = inhibition | Potency
CCOCCN1CCN(c2c(C)c(C)nc3cc(-c4cc(OC)cc(OC)c4)nn23)CC1 |  | active: 3.16 µM
COCc1c(C(=O)OCC(=O)N2c3ccccc3CC2C)oc2ccccc12 (configuration not stated) |  | inconclusive: 25.1 µM [rising, single point]
CCOC(=O)c1[nH]c(C)c(C(=O)c2cc(F)ccc2F)c1C |  | active: 12.6 µM
O=C(c1cc(C(F)(F)F)cc(C(F)(F)F)c1)N1CCC2(CCN(Cc3nccs3)CC2)CC1 | inactive: -4.45% | 
O=C(Nc1nccs1)C1CCCN1S(=O)(=O)c1ccc(F)cc1 (configuration not stated) | inactive: -6.3% | 
O=C(Nc1cccc(F)c1)N1CC=C(n2c(=O)[nH]c3ccccc32)CC1 | inactive: -15.1% | 
COCCn1c(=O)c(-c2cccc(C#N)c2)nc2cnc(Oc3ccc(OC)cc3)nc21 |  | active: 15.8 µM
C=C[C@@](C)(O)CC[C@H]1[C@]2(C)CCCC(C)(C)[C@H]2CC[C@]1(C)O | inconclusive: -6.31% | 
CC1=CC(C)(C)N=C(Nc2ccc(C)cc2)S1 | inactive: 11.7% | 
N#CCSc1nc(-c2ccccc2)cs1 | inconclusive: 9.61% | 
COc1ccc2cc3[n+](cc2c1OC)CCc1cc2c(cc1-3)OCO2 | inactive | 
CC(C)Oc1ccc(C(=O)Nc2ccc(N3CCCC3)cc2)cc1 |  | inconclusive: 3.98 µM [rising, partial curve]
COc1ccc(C(C(=O)NC2CCCC2)N(C(=O)c2ccco2)c2ccc3c(c2)OCO3)cc1OC (configuration not stated) | inactive: -6.73% | 
O=C(O)c1cc(=O)[nH]c(=S)[nH]1 | inactive: 3.19% [at 7.6 µM] | 
COc1ccc(CCNS(=O)(=O)c2ccc(C3CNC(=O)C3)cc2)cc1OC (configuration not stated) | inconclusive: 28.5% | 
COC(=O)[C@@]1(Cc2ccc(OC)cc2)[C@H]2c3cc(C(=O)N4CCCC4)n(CCn4cc([N+](=O)[O-])nc4C)c3C[C@H]2CN1C(=O)c1ccccc1 | inconclusive: -2.49% | 
CCC(=O)N1CCc2cc(S(=O)(=O)N3CCN(C(=O)c4ccco4)CC3)ccc21 |  | inconclusive: 7.94 µM [rising, partial curve]
COc1ccc(-c2cc3ccc(OCc4nn[nH]n4)cc3oc2=O)cc1 | inconclusive: 17% | 
CCOC(=O)CSc1ccc2nnc(-c3cccs3)n2n1 |  | active: 3.98 µM
c1ccc(-c2nn3c(Cn4nnc5ccccc54)nnc3s2)cc1 | inactive: 9.38% | 
Cc1nc2ncccn2c1-c1csc(NCc2ccco2)n1 |  | inconclusive: 12.6 µM [rising, partial curve]
Cc1cc(NC(=O)CSc2nc3ccccc3n2CC(=O)N2CCCCC2)no1 | inconclusive: 28.1% | 

SMILES | activity change, negative = inhibition | Potency
O=C(COc1ccc(Br)cc1)Nc1ccc(-c2nnc(-c3ccco3)o2)cc1 | inconclusive: 3.08% | 
CCOC(=O)CCn1c(=O)c2c(nc(Br)n2Cc2ccccc2)n(C)c1=O |  | inconclusive: 10 µM [rising, single point]
CCOC(=O)c1ccc(NC(=O)CCc2nc(-c3ccccc3)no2)cc1 | inconclusive: -19.1% | 
Fc1ccccc1CSc1nnc(-c2ccccc2)o1 |  | inconclusive: 12.6 µM [rising, partial curve, poor fit]
COCCn1c(SCC(=O)N2CCCCC2)nc2ccccc2c1=O | inactive: 8.31% | 
CCC(=O)Nc1nc(CC(=O)Nc2ccccc2)cs1 |  | inconclusive: 5.01 µM [falling, single point]
CC1(C)Cc2c(C#N)c(N)sc(=S)c2CS1 | inactive: -4.43% | 
CC[C@@H]1Cc2cc(O)ccc2C2=C1c1ccc(O)cc1C[C@H]2CC | inconclusive: -29.9% | 
CC(=O)Nc1nc2ccc(Br)cc2s1 | inconclusive: -19.7% | 
O=C(COc1ccccc1)Nc1ccc2c(c1)nc1n2CCSC1 | inconclusive: 5.26% | 
CCOC(=O)C1CCN(CC(=O)c2c(C)[nH]c3ccccc23)CC1 | inconclusive: -8.15% | 
CC(C)(C)NS(=O)(=O)c1cccc2nsnc12 | inactive: 2.11% | 
Cc1nc(NCc2ccccc2)c2nc(-c3ccccc3)n(CCN3CCCCC3)c2n1 | inactive: 9.07% | 
CC1(C)Cc2nc3oc4c(N(CCO)Cc5ccccc5)ncnc4c3cc2CO1 | inconclusive: 28.4% | 
CCOc1ccc(C(=O)Nc2cc(OC)ccc2OC)cc1 | inactive: 8.36% | 
COC(=O)c1c(N)sc(C(=O)N2CCOCC2)c1C | inactive: 13.9% | 
Cc1cc(NC(=O)CSC2=Nc3ccccc3C3=NC(Cc4ccccc4)C(=O)N23)n[nH]1 (configuration not stated) | inconclusive: -26.9% | 
CCCOc1ccc(CSc2ncn[nH]2)cc1 | inactive: 22% | 
O=C(O)Cc1[nH]cnc1C(=O)O | inactive: 16.6% [at 7.6 µM] | 
Cc1noc(C)c1-c1cc(NCc2cccs2)ncn1 | inactive: 7.98% | 
CCCn1c2ccccc2c2nnc(SCC(=O)OC)nc21 |  | active: 2 µM
COc1cc(NC(=O)Cn2c(-c3cncs3)nc3ccccc32)cc(OC)c1OC |  | inconclusive: 12.6 µM [rising, single point]

SMILES | activity change, negative = inhibition | Potency
Cc1ccc(-n2c(N)c(-c3nc4ccccc4n3C)sc2=S)cc1 | inconclusive: -7.32% | 
Cc1ccsc1C1C2=C(CCCC2=O)Nc2ncnn21 (configuration not stated) | inactive: 5.37% | 
CCN(CC)C(=O)CSc1nc2ccccc2c(=O)[nH]1 |  | inconclusive: 1.26 µM [rising, partial curve]
Cc1nn2c(N3CCN(c4ccccn4)CC3)cc(C(C)C)nc2c1-c1ccccc1 | inconclusive: 10.8% | 
CCC(=O)Oc1ccc2c(C)c(Cl)c(=O)oc2c1 |  | inconclusive: 12.6 µM [rising, single point]
NC(Cc1ccccc1)(C(=O)O)C(=O)O | inactive: -29.3% [at 7.6 µM] | 
O=CN(Cc1ccco1)C1(C(=O)NC2CCCCC2)CCCCC1 | inconclusive: 5.34% | 
Cn1c(=O)c2c(nc(CN3CCN(c4ccc(F)cc4)CC3)n2CCN2CCOCC2)n(C)c1=O |  | inconclusive: 12.6 µM [rising, single point]
Cn1cccc1C(=O)N1CCC2(CCCN(Cc3nccs3)C2)CC1 | inactive: -0.461% | 
Cc1noc(C)c1-c1nc(N2CCNCC2)c2ccccc2n1 |  | inconclusive: 12.6 µM [rising, single point]
CCCCCCn1c(SCC(=O)c2ccccc2)nc2c1c(=O)[nH]c(=O)n2C | inconclusive: 25.3% | 
CN(Cc1ccccc1)c1oc(COc2ccccc2F)nc1C#N | inactive: 20.8% | 
Cn1c(=O)c2c(nc(OCC3COC(C)(C)O3)n2Cc2ccccc2F)n(C)c1=O (configuration not stated) | inconclusive: 29.2% | 
CN(Cc1ccco1)c1cc(-c2ccoc2)ncn1 | inconclusive: -5.77% | 
O=C(NCCC1=CCCCC1)C1CCN(S(=O)(=O)c2ccc(-n3cnnn3)cc2)CC1 | inconclusive: 6.1% | 
COC(=O)c1[nH]c2ccccc2c1NC(=O)CN1CCN(c2cccc(OC)c2)C(C)C1 (configuration not stated) | inactive: 28% | 
OC(CNCCc1ccccc1)c1ccccc1 (configuration not stated) |  | inconclusive: 0.1 µM [rising, partial curve]
O=c1oc2ccccc2cc1-c1nc2ccccc2o1 | inconclusive: 25.7% | 
COc1ccc2c(c1)c(C(=O)CN1CCC3(CC1)OCCO3)c(C)n2C |  | inconclusive: 20 µM [rising, single point]
CCn1c(-c2cccc(Br)c2)n[nH]c1=S | inactive: 16.2% | 
COc1cc(C(=O)Nc2ccncc2)cc(OC)c1OC |  | inconclusive: 20 µM [rising, single point]
